# Source: PubChem BioAssay AID686978 (National Center for Advancing Translational Sciences (NCATS), 2013)
# Several values for one entry are separate records, joined by “and”; a condition that tells them apart may be missing. Equal entries are not always repeated. In all, about 420,000 compounds went through this assay and about 64,000 (15%) were called active. Inconclusive means that the source gave no clear call. Such entries were picked first, then a sample of the others. The call rests on the fitted dose curve; in most records, active means well fitted inhibition curve with a large enough effect; inconclusive means small, poorly fitted or top-dose-only effect; inactive means flat fitted curve, though single readings scatter. A potency beside an inconclusive call is a rough fit, not a confirmed value.
# Assay: qHTS for Inhibitors of human tyrosyl-DNA phosphodiesterase 1 (TDP1): qHTS in cells in absence of CPT; further: nearly all actives have a fitted effect of over 55% in size
# Conditions: DT40 Tdp1-/- hTDP1 cells, no CPT, ATP luminescence, 48 h; activity change, negative = growth inhibition: at 46.2 µM (top of the series) unless noted
# In short: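 Chicken DT40 Tdp1-/- cells complemented with human TDP1, screened without camptothecin (DMSO vehicle only), 400 cells/well. Compounds pin-transferred, cells incubated at 37 °C for at least 48 hr. Growth read as ATP-dependent luminescence (CellTiter-Glo, 30 min at RT).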
# On the % scale 0 is the no-effect control and ±100 the full control effect; potency means the concentration at half of the fitted maximal effect; tags describe the fitted curve by direction and shape.
Compound,Potency,"activity change, negative = growth inhibition"
CC[C@H](C)[C@H]1CNC(=S)N1CC1CCN(CCCC2CCCC2)CC1,"inconclusive: 25.9 µM [inhibitor, single point]",–
COC(=O)c1ccccc1OCCCOc1ccc(C=O)cc1OC,"inconclusive: 29.1 µM [inhibitor, single point]",–
O=C(CNS(=O)(=O)c1ccc(Br)s1)N1CCN(c2ccccc2F)CC1,"inconclusive: 29.1 µM [inhibitor, single point]",–
O=C(Nc1nnc(-c2ccc(F)cc2)s1)C1CCN(S(=O)(=O)c2ccc(Cl)cc2)CC1,"inconclusive: 20.6 µM [inhibitor, partial curve]",–
Cc1ccc(OCCCC(=O)Nc2ccc(Cl)c(S(=O)(=O)N3CCOCC3)c2)cc1,active: 18.4 µM,–
COC(=O)CC1COc2ccccc2N1C(=O)c1ccc(Br)cc1 (stereo unspecified),"inconclusive: 0.92 µM [inhibitor, full curve, poor fit]",–
COc1ccccc1CN1CCNC(=O)C1CC(=O)N(C)Cc1cnccn1 (stereo unspecified),–,inactive: 5.29%
CCc1ccc(OCC(=O)N(Cc2cccs2)C2CCS(=O)(=O)C2)cc1 (stereo unspecified),"inconclusive: 29.1 µM [inhibitor, single point]",–
CCOc1ccc(CCN2C(=S)N([C@@H](CC(C)C)CN3CCC[C@@H]3CN3C(=S)NC[C@@H]3Cc3ccccc3)C[C@@H]2Cc2ccc(O)cc2)cc1,active: 13 µM,–
CNS(=O)(=O)c1cc(C(=O)NCc2ccco2)ccc1Cl,–,inactive: -17.8%
Cn1cnnc1SCC(=O)NN(c1ccccc1)c1ccccc1,–,inactive: -10.2%
COc1cccc(OC)c1C(=O)Nc1ccc2c(c1)CCCN2S(=O)(=O)c1ccc(C)cc1,"inconclusive: 25.9 µM [inhibitor, single point]",–
O=C(COCc1cc(-c2ccco2)on1)Nc1ccc(OC(F)(F)F)cc1,"inconclusive: 16.4 µM [inhibitor, single point]",–
Cc1ccc(NC(=O)CSCC(=O)Nc2cc(S(=O)(=O)N3CCOCC3)ccc2OC(C)C)cc1,"inconclusive: 11.6 µM [inhibitor, partial curve]",–
CC1CCN(CC(O)COCCOc2ccc(Br)cc2)CC1 (stereo unspecified),–,inconclusive: -30.8% [inhibitor]
Cc1ccc(-c2nc3c(cnn3-c3ccccc3)c(=O)n2-c2ccc(Cl)cc2)cc1,"inconclusive: 25.9 µM [inhibitor, single point]",–
CCCCCn1c(=NC(=O)c2cccnc2)c(C#N)cc2c(=O)n3cccc(C)c3nc21,"inconclusive: 29.1 µM [inhibitor, single point]",–
COc1ccccc1CCNC(C)CCc1ccc(O)cc1 (stereo unspecified),–,inactive: -19.7%
COc1cccc(NC(=O)CCCN2C(=O)C3CC=CCC3C2=O)c1 (stereo unspecified),–,inactive: 4.49%
CCOC(=O)c1ccc(NC(=S)NNC(=O)C2(C)CC2(Cl)Cl)cc1 (stereo unspecified),"inconclusive: 18.4 µM [inhibitor, single point]",–
O=C(NC1CCCC1)c1cc(-c2cccs2)on1,"inconclusive: 35.5 µM [inhibitor, single point] and inconclusive: 16.4 µM [inhibitor, partial curve]",–
NC(=O)CSc1nnc(-c2ccc(S(=O)(=O)N3CCCCC3)cc2)n1-c1ccccc1,"inconclusive: 14.6 µM [inhibitor, partial curve]",–
Cc1cccc(NC(=O)Cn2c(=O)oc3ccccc32)c1,"inconclusive: 11.6 µM [inhibitor, single point]",–
O=C(COC(=O)c1ccco1)c1ccccc1,–,inactive: 3.63%

Compound,Potency,"activity change, negative = growth inhibition"
CSc1nc2c(c(=O)[nH]1)C(c1ccccc1)C1=C(CC(C)(C)CC1=O)N2 (stereo unspecified),–,inactive: -15.7%
CC1(c2nnc(-c3ccc(Cl)cc3)o2)CC(c2c(Cl)cccc2Cl)=NO1 (stereo unspecified),–,inconclusive: -34.9% [inhibitor]
O=C(c1cc2c(ccc3ccccc32)oc1=O)N1CCCC1,–,inactive: -2.79%
COc1cccc(/C(C#N)=C/c2c(-c3ccc(Cl)cc3)nc3c(C)cccn23)c1,active: 18.4 µM,–
O=C(Cn1c(=O)c(=O)n(Cc2ccccc2)c2ccc(Cl)cc21)Nc1ccc(F)cc1F,"inconclusive: 29.1 µM [inhibitor, single point]",–
CCCCCCC(O)(c1ccccc1)C(CN1CCOCC1)c1ccccc1 (stereo unspecified),active: 23.1 µM,–
Cc1cc(-c2nnc3n2N=C(c2ccccc2Br)CS3)n[nH]1,"inconclusive: 25.9 µM [inhibitor, single point]",–
NC1=NC(c2ccc(Cl)cc2)C(C(=O)c2ccccc2)N1 (stereo unspecified),active: 11.6 µM,–
C=Cc1ccc(CC2(C)C(=O)Nc3c(Cl)cccc32)cc1 (stereo unspecified),"inconclusive: 3.26 µM [inhibitor, full curve, poor fit]",–
Cc1ccc(-n2ncc3c(NCCC4=CCCCC4)ncnc32)cc1C,"inconclusive: 18.4 µM [inhibitor, single point]",–
COc1cc(/C=C/C(=O)Nc2ccc(OC)c(S(=O)(=O)N3CCOCC3)c2)ccc1OCC#N,"inconclusive: 29.1 µM [inhibitor, single point]",–
Cc1cccc(-n2ncc(C(=O)NC3CCCC3)c2C2CCN(C(=O)OC(C)(C)C)CC2)c1,"inconclusive: 25.9 µM [inhibitor, single point]",–
O=C(NC1CCCC1)c1cccc(S(=O)(=O)N2CCOCC2)c1,–,inactive: -1.02%
CC(=O)C1=C(C)NC(SCC(=O)c2ccc(Cl)cc2)=C(C#N)C1CC(C)C (stereo unspecified),"inconclusive: 18.4 µM [inhibitor, single point]",–
Cc1ccc([N+](=O)[O-])cc1N/C=C1\CCc2ccccc2C1=O,"inconclusive: 14.6 µM [inhibitor, partial curve]",–
Cc1cccc(C)c1Cn1c(C)c(C(=O)NCc2cccc(Cl)c2)sc1=O,"inconclusive: 20.6 µM [inhibitor, single point]",–
COc1ccc(-c2ccc([C@H]3[C@@H]4C=CCC[C@@]4(C)C(=O)N3Cc3ccccc3)c(F)c2)cc1,"inconclusive: 29.1 µM [inhibitor, single point]",–
COC(=O)c1ccc(NC2(C#N)C(=O)Nc3ccccc32)cc1 (stereo unspecified),active: 23.1 µM,–
COc1ccc(C(=O)NC(=S)N2CCCCC2)cc1[N+](=O)[O-],"inconclusive: 29.1 µM [inhibitor, single point]",–
O=C(NCc1ccc(F)cc1)c1cc(C2CCCCN2S(=O)(=O)c2cccs2)on1 (stereo unspecified),"inconclusive: 16.4 µM [inhibitor, single point]",–
Cc1ccc(NC2CCCN(C(=O)C3CCCCC3)C2)cc1C (stereo unspecified),"inconclusive: 23.1 µM [inhibitor, single point]",–
O=C1c2oc3ccc(Br)cc3c(=O)c2C(c2cccc(F)c2)N1CCO (stereo unspecified),"inconclusive: 29.1 µM [inhibitor, single point]",–
O=[N+]([O-])c1ccc(-c2cn3nc(-c4ccccc4)c(-c4ccccc4)nc3n2)cc1,–,inconclusive: -32.1% [inhibitor]
COc1cc(-c2c(-c3ccc4c(c3)OCO4)noc2C)ccc1F,active: 17.8 µM and active: 16.4 µM,–

Compound,Potency,"activity change, negative = growth inhibition"
COCCOC(=O)c1c(NC(=O)CN(C)c2ccccc2)sc(C(N)=O)c1C,"inconclusive: 23.1 µM [inhibitor, partial curve]",–
COc1ccc(NC(=O)C2=C(C)C(=O)OC23CCC(C)CC3)cc1Cl (stereo unspecified),"inconclusive: 16.4 µM [inhibitor, single point]",–
Cc1cc(C)cc(SCc2noc(C(=O)NC(C)C)c2C(=O)O)c1,"inconclusive: 29.1 µM [inhibitor, single point]",–
CCc1ccc(NC(=O)c2ccc(CN3C(=O)C(C)=C(c4ccc(C)cc4)S3(=O)=O)cc2)cc1,active: 10.3 µM,–
Cc1ccc(C(=O)NNC(=O)c2ccc(NS(=O)(=O)c3cccs3)cc2)o1,–,inactive: 23.4%
C=C1[C@@H](CCO)N(S(=O)(=O)C(C)(C)C)C[C@@H]1C,–,inactive: -7.77%
COc1ccc(-c2onc(C)c2C)cc1S(=O)(=O)N1CCC(C)CC1,"inconclusive: 29.1 µM [inhibitor, single point]",–
COc1ccc(Cl)cc1NC(=S)N(CCCN1CCOCC1)Cc1cn(C)c2ccccc12,"inconclusive: 29.1 µM [inhibitor, single point]",–
Cc1ccccc1C(=O)N1CCC[C@H]1C(=O)N1CCC[C@H]1C(=O)NCc1ccccn1,–,inactive: -13.3%
Cc1ccccc1C(=O)Nc1cccc(C(=O)N/N=C/c2ccccn2)c1,–,inactive: -22.7%
Cn1c(=O)c2[nH]c(-c3ccc(S(=O)(=O)O)cc3)nc2n(C)c1=O,inactive,–
O=C1C(c2ccccc2)CN1Cc1ccccc1 (stereo unspecified),–,inactive: 2.7%
CSc1nc2c([nH]c3ccccc32)c(=O)n1-c1ccc(F)cc1,"inconclusive: 16.4 µM [inhibitor, partial curve]",–
CCCn1c(-c2ccc(OC)cc2)nc2nc3ccccc3nc21,active: 20.6 µM,–
Cc1csc2c(=O)sc(NC(=O)c3cccs3)nc12,"inconclusive: 14.6 µM [inhibitor, single point]",–
COc1ccccc1NC(=O)/C(=C\c1cccnc1)NC(=O)c1ccc(C)cc1,–,inactive: 5.56%
Cc1sc2ncn(/N=C/c3ccco3)c(=O)c2c1C,–,inactive: -8.26%
Cc1c(Cl)cnc(NC(=O)CSc2nnc(C)n2Cc2ccccc2)c1Cl,–,inactive: 0.861%
Cc1ccc(S(=O)(=O)N2CCN(C)CC2c2ccccc2)cc1 (stereo unspecified),–,inactive: 20.2%
Cn1c(C(=O)NCc2cccc(F)c2)cc2cc(S(=O)(=O)N3CCCCC3)ccc21,active: 23.1 µM,–
Cc1ccc(Nc2n[nH]c(=S)s2)cc1C,"inconclusive: 23.1 µM [inhibitor, single point]",–
O=C(N/N=C/c1ccccc1OCc1ccccc1Cl)c1cccnc1,active: 23.1 µM,–
Cc1ccc(N(C(=O)CCC(=O)Nc2cc(C)on2)C(C(=O)NC2CCCC2)c2cccs2)cc1 (stereo unspecified),"inconclusive: 12.6 µM [inhibitor, single point]",–
